# Test results published in the supplement of paper PMC4604168 (melanoma cell lines).
# This is one part of the list. Repeats are few or missing, and single values can be far off.
# Assays:
# Assay in all cases: cell count relative to DMSO control; melanoma cells; higher = more viable cells
# Conditions in all cases: library dose: standard library concentration; 72 h
# G361 = system: G361
# IPC-298 = system: IPC-298
# IST-MEL1 = system: IST-MEL1
# LB2518-MEL = system: LB2518-MEL
# LOXIMVI = system: LOXIMVI
# MEL-HO = system: MEL-HO
# MZ2-MEL = system: MZ2-MEL
# MeWo = system: MeWo
# RPMI7951 = system: RPMI7951
# RVH-421 = system: RVH-421
# SkMel28 = system: SkMel28
# SkMel2 = system: SkMel2
# SkMel30 = system: SkMel30
# SkMel5 = system: SkMel5
# UACC257 = system: UACC257
# UACC62 = system: UACC62
# WM115 = system: WM115
# WM1716 = system: WM1716
# WM1745 = system: WM1745
# WM3526 = system: WM3526
# 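Also: cells treated in 1,536-well plates, then fixed and DAPI-stained, with nuclei counted from automated high-throughput microscope images.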
SMILES,cell count (G361),cell count (IPC-298),cell count (IST-MEL1),cell count (LB2518-MEL),cell count (LOXIMVI),cell count (MEL-HO),cell count (MZ2-MEL),cell count (MeWo),cell count (RPMI7951),cell count (RVH-421),cell count (SkMel28),cell count (SkMel2),cell count (SkMel30),cell count (SkMel5),cell count (UACC257),cell count (UACC62),cell count (WM115),cell count (WM1716),cell count (WM1745),cell count (WM3526)
"COc1cc([C@@H]2c3cc4c(cc3[C@@H](O[C@@H]3O[C@@H]5CO[C@@H](C)O[C@H]5[C@H](O)[C@H]3O)[C@H]3COC(=O)[C@H]23)OCO4)cc(OC)c1O [etoposide] + CS(=O)(=O)c1ccc(C(=O)Nc2ccc(Cl)c(-c3ccccn3)c2)c(Cl)c1 [vismodegib] (first compound 0.1 µM, partner dose 5 µM)",97.5%,72.7%,87.7%,88.9%,67.6%,106%,80.5%,90.8%,103%,121%,79.1%,78.9%,64.7%,73%,119%,32.7%,67.9%,79%,104%,92.8%
"C[C@]1(O)C[C@@H](c2nc(-c3ccc4ccc(-c5ccccc5)nc4c3)c3c(N)nccn32)C1 + NC1(c2ccc(-c3nc4ccn5c(=O)[nH]nc5c4cc3-c3ccccc3)cc2)CCC1 [MK2206] (first compound 2 µM, partner dose 2 µM)",73.3%,78.5%,91.3%,72.4%,59%,76.3%,103%,86.2%,84.6%,94.8%,29.3%,71.6%,92.9%,62.2%,97.1%,57.1%,75.6%,86.8%,64.6%,77.1%
"CCN(CC)CCNC(=O)c1c(C)[nH]c(/C=C2\C(=O)Nc3ccc(F)cc32)c1C [sunitinib] + Nc1cccc2c1CN(C1CCC(=O)NC1=O)C2=O [lenalidomide] (first compound 2 µM, partner dose 5 µM)",95.4%,74.5%,106%,62.7%,161%,90.6%,107%,53.7%,68.8%,73.3%,63.1%,59%,70.2%,54%,74.4%,31.5%,66.5%,89.8%,48.1%,52.5%
"C[C@]1(O)C[C@@H](c2nc(-c3ccc4ccc(-c5ccccc5)nc4c3)c3c(N)nccn32)C1 + O=C(O)c1ccc2c(c1)nc(Nc1cccc(Cl)c1)c1ccncc12 [CX4945] (first compound 2 µM, partner dose 2 µM)",50.5%,50.8%,70.4%,100%,41.7%,52.5%,70.8%,80.8%,39.6%,62.2%,48.7%,59.1%,51.3%,63.5%,78.3%,69.1%,85.9%,90%,49.8%,36.8%
"Cn1cnc2c(F)c(Nc3ccc(Br)cc3Cl)c(C(=O)NOCCO)cc21 [selumetinib] + CC1(C)NC(=O)N(c2ccc([N+](=O)[O-])c(C(F)(F)F)c2)C1=O [nilutamide] (first compound 0.075 µM, partner dose 5 µM)",59.6%,56.7%,84.7%,42.7%,107%,90.5%,80.1%,76.1%,143%,78.7%,52.7%,52.7%,54.6%,65.8%,85.2%,75.2%,70%,84.4%,80.9%,57.6%
"Cn1cnc2c(F)c(Nc3ccc(Br)cc3Cl)c(C(=O)NOCCO)cc21 [selumetinib] + NC1(c2ccc(-c3nc4ccn5c(=O)[nH]nc5c4cc3-c3ccccc3)cc2)CCC1 [MK2206] (first compound 0.075 µM, partner dose 2 µM)",33%,51%,79.4%,32.8%,77.5%,56.3%,50.7%,55.8%,108%,68%,27.6%,9.33%,47.2%,59.2%,79.6%,49.5%,30.2%,70.1%,69.1%,44.1%
"Cn1cnc2c(F)c(Nc3ccc(Br)cc3Cl)c(C(=O)NOCCO)cc21 [selumetinib] + Cc1cc(Nc2cc(N3CCN(C)CC3)nc(/C=C/c3ccccc3)n2)n[nH]1 [ENMD2076] (first compound 0.075 µM, partner dose 0.2 µM)",66.7%,38.1%,96.4%,44.8%,85.4%,73.9%,44.5%,58.5%,102%,72.6%,43.9%,46.3%,45.1%,62.3%,92.2%,50.9%,63.8%,79.1%,73.8%,48.5%
"COc1cc([C@@H]2c3cc4c(cc3[C@@H](O[C@@H]3O[C@@H]5CO[C@@H](C)O[C@H]5[C@H](O)[C@H]3O)[C@H]3COC(=O)[C@H]23)OCO4)cc(OC)c1O [etoposide] + O=C(Nc1cc(C(F)(F)F)cc(C(F)(F)F)c1)c1cc(Cl)ccc1O [IMD0354] (first compound 0.1 µM, partner dose 0.08 µM)",83.3%,72.8%,87.5%,78.3%,96.1%,81.8%,72.6%,88%,92.3%,92%,47.2%,77.6%,86.3%,76.1%,87.1%,76.5%,81.1%,67.4%,99.8%,79.9%
